# Measured values: the supplement of paper PMC11417369
# The other results are listed elsewhere or left out.
# System: PfAP2-HC AP2 domain (GST-tagged)
# Test: gcPBM binding intensity (ln(normalized median fluorescence intensity)); higher = stronger DNA binding
# Procedure, shortened: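 The binding buffer was 1× PBS containing 1% milk, 0.2 mg/ml BSA, 0.5% salmon testes DNA and 0.03% Triton X-100. In it, GST-tagged P. falciparum DNA-binding domains expressed in E. coli were applied for 1 h to an Agilent 4 × 180k array of primer-extended double-stranded 36-bp intergenic genomic probes plus negative controls. Binding intensity, read with Alexa488 anti-GST antibody and a 488 nm scan, is the highest Masliner-normalised natural-log median intensity across replicate spots of either probe orientation.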
row,Sequence,gcPBM binding intensity (ln)
1,ATAAAAATATATGAAACACACAGTTTCTATAAGAAA [CACACA_site4156],9.85
2,GTTATTAAATAATTCACACACATATATAAATAAATA [CACACA_site7129],9.93
3,ATATCTCAACATATCACACATATATATATATAATAT [CACACA_site5018],9.9
4,AATAAATATAAATAAATAAATATATATATATATTTG [CACACA_negctrl_site1486],9.56
5,CATCCACATAGATGTACACACATATATATATATATA [CACACA_site5616],10.1
6,ATATGTATATTTTTGATGTGCTTTTATTTGGTTATT [CACACA_negctrl_site626],9.91
7,CTTCATAAAAATTGCACACATATAATAATGTACATA [CACACA_site2212],9.71
8,AAAAAAAATACATACACACACACACGCACATATATA [CACACA_site7645],11.7
9,ATTTTTTTATAATCAACCCATTTCCTACATTTTTAT [CACACA_negctrl_site1237],9.85
10,AAAATTAATTTATTTACACACAATATTAAAATATTT [CACACA_site7512],9.59
11,TTTTATACATATTTTACACACTAAAATATACAGATA [CACACA_site4333],9.56
12,TTACATATTCATAAAAGTACATAATTATAAAAGGTA [XGTACX_site906],9.66
13,GTATATATGTTTTATACACACATTAAAGGAAATATA [CACACA_site984],9.83
14,TATAATATATAAAAATGTACACATAAATATAAGTAG [XGTACX_site665],9.93
15,ACATGCAAGAAGAAATGTACTTAACATCTATATAGA [XGTACX_site7338],9.52
16,ACTAAATAAATAAATATAATATATAAATATGTATGT [TGCATGCA_negctrl_site583],9.76
17,GCCATAAAGATATATACACACATAAAAAAAAGTTAT [CACACA_site6674],9.9
18,AAAAAAAAAATTAAATGTACATATATAATATATATA [XGTACX_site7245],9.63
19,TTAACAAAGAAACACACACACACACCCAAAAAAAAA [CACACA_site516],10.6
20,ATTATTATAGATAAAACACACAATTTTGTTTTCACA [CACACA_site7792],9.64
21,AAACAATTATTATATTGTACATATATTACATTATTA [XGTACX_site1089],9.54
22,TTATATTTTATTATGTGTACGTATATAATATAATAT [XGTACX_site6230],9.6

row,Sequence,gcPBM binding intensity (ln)
1,AATCAAAAAGGAACCATAATATTACAACTATATATA [CACACA_negctrl_site381],9.61
2,TAAAACTTAATGTTTTGTACATATTCTTCTTTATTT [XGTACX_site4271],9.63
3,GCTTAGTTATATAACTGTACTATTTTTATTTATATG [XGTACX_site884],9.89
4,ATAAAGTAAGAAGAAATAATGATTTTCATGGAAAAC [XGTACX_negctrl_site322],9.71
5,AATAAGATAAGGAAAAGTACTTATAATTAAACTAAT [XGTACX_site1850],9.74
6,CTCATAGTTGGGTGCACACAAAAAATTAAAAAAATA [CACACA_site3032],9.95
7,AAATACATACATTAATGTACAAATAGAAACACTCTT [XGTACX_site1512],9.95
8,AAATATAAGTAAATAAATAAATATATAAATATATAA [TGCATGCA_negctrl_site441],9.71
9,TTTTTATTCGTTAAATGTACAAAAAAAATGTTATAT [XGTACX_site2804],9.32
10,ATACACTAGAAAATTTTATAGTATTATTAATGTTAA [GTGCAC_negctrl_site101],9.5
11,GATAAACCATATATAACACACATATGAATATTGCAA [CACACA_site6735],9.85
12,ATATCATATATAAGTCGTACGATGAATAGAATTTTT [XGTACX_site7586],9.88
13,CACCCATACAGACATACACACACATATATATTAATA [CACACA_site8077],10.2
14,CTTATACAAAAAAAAAGTACATAACATAATAAGAAT [XGTACX_site6782],9.78
15,ACAGATGATCAAAATTGTACAGAGTTATATTATATT [XGTACX_site4642],9.65
16,TTATTTAAAAATAGCACACATTATATATATATATAT [CACACA_site5556],9.74
17,CCATAATTATATGCCAGTACATATTTGTAACAAAAA [XGTACX_site851],9.58
18,TTTATTTTTCATTGGGGTACACAAGTTTATTTTATT [XGTACX_site4263],9.69
19,TAAGTAATAGTTTGTGCACACTCAAGTATATCATAT [CACACA_site4035],9.98
20,TATTATTCCATGTGAAGTACAGAAATATAAATAAAT [XGTACX_site5106],9.48
21,CTTTTAAAAAAATTCATGCACACGAAATAAAAAGCA [CACACA_site929],9.73
22,CAAAATATTTTTATAACACACATATATAGAATGTGC [CACACA_site1145],9.61

row,Sequence,gcPBM binding intensity (ln)
1,TATATATATATAACAACACACACAGATCATAAAACT [CACACA_site8670],10.6
2,TATTTTTTTTCGTAATGTACATAAAAAATGCAAAAA [XGTACX_site8491],9.43
3,ATTATATAATTTAATCGTACACAAATATTTGTTAGT [XGTACX_site5913],9.62
4,TTTTACTATACTTATGCACACAAGATAAATACATAT [CACACA_site5619],9.83
5,ATACCTCAAATTGATACACACAAAAAAAGTAAATTA [CACACA_site3134],9.8
6,CTATTTTAATATTTTACACACCATGTAAAATATATA [CACACA_site5732],9.65
7,TATCATCTTAATATCGTGCACATTTATAGAACGAAA [GTGCAC_site9992],9.41
8,ATATATATATATATATGTACACAGGACAATAATCCT [XGTACX_site6383],9.94
9,TATTAAAAGGTGAGTACACACATATATGTGTATATA [CACACA_site7070],10
10,TTTTTTTTTATAAATACACACGTACGGGTGCATAAC [CACACA_site8444],9.65
11,ATCATGAAATATATTTGTACACATAATAATATAATA [XGTACX_site8798],9.71
12,ATTTGGCAGAAACACACACACACACCCACCCACATA [CACACA_site589],10.5
13,GGAATAGTCGGGTGCATACACACCTTAAATATAATA [CACACA_site1081],9.59
14,AATCATATTAGTATGGTGCAATATATATATAAATAT [GTGCAC_site9800],9.69
15,AAAGAAAATTCAATAGTGCATAAAAATATATATGTT [GTGCAC_site9680],9.69
16,ACTAATTACTATAAAACACACATATATTTATTTATA [CACACA_site7263],9.82
17,CACATGTATTTATAGGTGCGTAAAAACACTTTATAT [GTGCAC_site9501],9.58
18,TTATAGAAACATTGGTGTACGATATTTACTTCTTTC [XGTACX_site7314],9.56
19,TTTTACTATACTTATGCACACAAGATATATACATAT [CACACA_site2968],10
20,TAAAAAAATTCATGCACACGAAATAAAAAGCACCTT [CACACA_site4667],9.94
21,AAACATAAATTTTATTGTACATTATATAGAATTTTC [XGTACX_site576],9.52
22,AATACATACATACATACACACATATATATATATTAT [CACACA_site3575],10.8

row,Sequence,gcPBM binding intensity (ln)
1,TTTTCATTTTTTCGTTGTACATAAATAATATATATT [XGTACX_site856],9.83
2,TTTTTTAAAAGATAATATTTTATTAATGTATTCTCA [GTGCAC_negctrl_site598],9.35
3,ATATATACATATAATTGTACTTGTGTTGTTTTTCTT [XGTACX_site1870],9.9
4,TTAACGCTTATTTTTTGTACTTATTTTATTTTAAAT [XGTACX_site3977],9.75
5,CAACATTAATATAAAGCACACATATATATAATATAT [CACACA_site8064],9.96
6,ACTCTATAATAAAATACACACAAGACTATCTAATAT [CACACA_site1796],9.92
7,TCTTTTTTTTTTTTTTTTTTTTTTTTTTTTTTTTTT [GTGCAC_negctrl_site18],9.12
8,ATTTTAATGACATATACACACAAAGGTTCATAACAA [CACACA_site5664],9.82
9,ATAAAACCAACATAGAGTACAGATCGACTATGTTTC [XGTACX_site4329],9.78
10,TTTTCTTTTTAAATTACACACACATATATATATGTA [CACACA_site9172],10.1
11,TGTAGATATTATATATGTACGCATATGAAATATATA [XGTACX_site1586],9.49
12,TAATTATATAAATATTGTACAAAAAAAATATATATA [XGTACX_site3137],9.66
13,AAAATATATAATATAACACACATATATTCTATATGG [CACACA_site4044],9.73
14,TTCAAAATATATATTTGTACATATAGGATCTTTTTC [XGTACX_site4500],9.54
15,GTAATATCAATATAAAGTACACACTATAGTATGTAT [XGTACX_site4714],9.87
16,TATATTCTTTTAAACAGTACACACACACATATATAT [XGTACX_site1701],11.1
17,AATATAAAAATATAAAAACACACGTAAAAAAATTTA [CACACA_site3399],9.82
18,AAAAAAATTAAAAATAAAGAAAAAAAAAAAAAAAAA [GTGCAC_negctrl_site401],8.88
19,AATATAAACCCAAACACACACATATATATATATATA [CACACA_site268],10.7
20,TTTTTTTTTTTGAGGAGGACACAAAAATATGCTACC [XGTACX_site756],9.32
21,TTTTATTTATAATATATACACACTAACATTATTTAT [CACACA_site1284],9.78
22,GAATATTTATCATGGGGTACCTTAAAAAAGGGAAAA [XGTACX_site298],9.55
